According to the RNAGym collection of RNA variant scans (doi:10.7554/elife.90254):
Read counts are not given, so values of variants with three or more changes are uncertain.

B1: LINE1-mini (parent)
chain: GGCAGAGCUCAACACAGCGUGGCAAAGUGGCUGUGGCUAGACUGCC

Variants of: B1
Assay: self-cleavage, relative activity (ratio to wild type); higher = more cleavage; in vitro, sequencing; the parent is a self-cleaving ribozyme

Variant	self-cleavage
C3A C10A A16G G21C U28G	0.01
G2U U38A G44A	0.04
G2U U32C C42U	0.05
G2U G29C C37U	0.04
C3A A12G A16U	0.02
G2U U9C C42G	0.02
G2U G30A G35C G36U	0.04
G2U C15G C23A C37A	0.01
C3A C15U G21C A24U U32A C46G	0.1
C3A A6C G7A G22C C31U U32A	0.01
G2U C13A C23U U28C G44U	0.01
C3A C8G A24G G40A	0.04
C3A A12U C31A C46U	0.01
G2U C10A U20C C42A	0.01
C3A C15A A41U	0.14
G2U G7U C13A A16U U20A U28A	0.02
G2U G22A A25U U28C C37G	0.04
C3A A6U C10G C15A G19A U43C	0.03
G2U C13G G44C C46A	0.03
G2U G7A C13U C46A	0.03
G2U C15G A26U G29C U32G G40C	0
C3A A16G G21A G33A	0.18
G2U U20A G21U A25U A26G G30U	0.05
C3A A11U U34A	0.01

Variant	self-cleavage
C3A C15A G17C	0.05
C3A A6G A16U G19U	0.04
C3A A6G C23A G36U	0.05
C3A A14G A24U	0.32
G2U C10A G19A C46G	0.01
C3A A4C G35A	0.06
C3A A39U G40U	0.25
G2U C10A G30C A41U C42U U43G	0.01
C3A C10A C18G U20G C45A	0
G2U G19U G36C G40A	0.03
C3A C13A U20C C37G C45G	0.1
G2U G7U C23G C45U	0.02
C3A A11C G19A	0.01
C3A A4C C13A G17A A26G	0.37
C3A A12C G17A C23U G40C	0.03
C3A C10U G22U	0.07
C3A C18A G19U A41G G44C	0.04
C3A A6U C18G G30U A41C	0.03
G2U C13A U20G A41U	0.01
C3A A4U C42U	0.11
C3A A16U C23U G40C	0.08
G2U G21A G22U A24U G27A G33A U38A G44C	0.06
G2U U9C G21U A24U G27A U34A C46A	0.01
G2U U9G A25G	0.07

Variant	self-cleavage
G2U C13U C23A U32A U43C	0.01
C3A A16U G17A	0.1
G2U U9A U20C U32G	0.04
G2U G30C U32C C46U	0.02
C3A C18A G27A C45G	0.07
C3A C8G G22A C23A	0.03
C3A C10U A24G A39U	0.48
C3A A6G C46A	0.12
C3A A11C A14C U20G G40C G44A	0.01
G2U C15A A26C	0.03
G2U G5U C8G U32A	0.02
C3A A6C C10A G36A	0.05
C3A C15U G19U	0.18
G2U G5U A24C A26C	0.02
G2U C8G G17U U43A	0.01
G2U G21A U28A	0.19
C3A C8A U9A G40C	0.41
G2U C23U G44A	0.14
G2U U9C C18U C23G C31A	0.01
G2U C23A U28A	0.08
C3A C8A U38C A41C	0.62
C3A C13G C15G U38A C46U	0.08
C3A A6G C8A	1.14
G2U C18A A25U A39G U43G C45A	0

Variant	self-cleavage
C3A A4U A11C G27U	0.04
C3A A25U U38G C42A	0.12
G2U C15U G19C G30A G44C	0.05
C3A A4C A6U G7A U32A C46A	0.38
C3A A4U A6U G29U	0.05
G2U G5U C31U U38G	0.01
C3A C8U G40A	0.51
C3A A4U U9C A12U A14C C23G	0
G2U C10G A16U G27A A39C	0.01
C3A A39C C46U	0.08
C3A A24G C31A A39G	0.13
G2U C13A G19U U34G	0.04
C3A A6C G19A G27U	0.46
G2U U9C C18G	0.01
G2U C8G A41U	0.03
G2U G5U U9A	0.02
C3A A4U A6G G22A	0.1
C3A C10A A12U A41U C46A	0.03
C3A A4C A14U U20G G27C G29C G30C	0
C3A A11G G40U C46U	0.14
G2U C15U G29C C45G	0.09
G2U C8U C13A C18A U32A	0.05
G2U C37A G44A	0.02
G2U G17A G35U	0.11

Variant	self-cleavage
C3A C15A A16U C23G A24G G35C	0.06
C3A C18A C31A A41U	0.04
C3A A26C G27C U28G C37A U43A	0.07
G2U G22U G36U C37U C45G	0.01
G2U G22A C31A C37A G44U	0.11
G2U G27A U38A	0.04
C3A A6C G7U A16G U28A G33U U38G G40C G44C	0.01
G2U C10G A11C C23A C42U	0.01
G2U G21C C46G	0.04
G2U C13U A14C C18U U34C G36U	0.05
C3A A12C G17A G22A G35A G36C	0.01
G2U U9A G17U U20G	0.02
G2U G7A G40A	0.04
C3A C15U C42G C45G	0.02
C3A A16U G36U U38G C42A	0.11
C3A A39C A41G	0.6
G2U C13U A26G U32A C46A	0.03
G2U G5U G17C	0
G2U U28A U34G	0.02
G2U G5U A25U C45U	0.04
G2U C13A G40U	0
G2U U9A A24U C46G	0.03
G2U G19C G30C	0.02
G2U C13U C18U U34G G44U	0.05

Variant	self-cleavage
G2U G21U U43C	0.02
G2U G27U U38C U43G	0
G2U U9G A24C G27C	0.02
G2U G35U C45U	0.02
G2U C8U G17A U32A U43A	0.02
G2U G5U U9C C10U	0.01
G2U C10G G27U A41U	0
C3A A24C U32A	0.1
C3A A4C G7C	0.11
G2U G17A U20C A39C	0.01
G2U G30U G33A	0.08
C3A A16U G21A G22A A24U G33U	0.56
G2U G30U C31A	0.19
G2U C3U G5A U9C C31U G36U	0.02
C3A A24C A26C A39G	0.23
C3A A12G C15U G21U A24U G40U	0.05
G2U U20A A26G	0.02
C3A C13G G22U G27U C42A	0.34
C3A C15A G29A	0.03
G2U U9G A11U G19U G40A	0.01
C3A A24C A25U G33C	0.1
C3A C13A C31U	0.23
C3A C13A G27C C37U C42G	0.73
G2U G22A C23U A24U G30U U38G	0.01

Variant	self-cleavage
G2U U34C U43G C45A	0
G2U G5A C8A A16G C18U C31A U38G	0.08
C3A A12G C46G	0.11
C3A A16G G30A	0.24
C3A A14C G21U G44C	0.06
C3A A11G C18U U38A	0.08
C3A C10G G35A	0.04
C3A C8A G40U G44C	1.06
C3A A14U G27C G33C	0.1
C3A C13A A39G	1.38
G2U G22A A24U	0.04
C3A A16U C23G A26C	0.11
C3A A11U G33U G44A	0.08
C3A C15A A26U	0.01
G2U G17C C23U C42A	0.04
G2U G5U C13A G21A A26C U28G	0.01
C3A A6C G7A C13U G27C	1.5
G2U G21A G36A	0.08
C3A A12U G21U	0.19
C3A A16C C18G	0.04
C3A C10A G36C	0.07
C3A A4G C31U G33A	0.05
G2U G22A C45U	0.1
